Data published in article PMC11880193 (Nature Communications, 2025).

T1: CODANIN-1 full-length (1–1227 a.a.), wild type (human, UniProt Q8IWY9 1-1227)
T1 sequence: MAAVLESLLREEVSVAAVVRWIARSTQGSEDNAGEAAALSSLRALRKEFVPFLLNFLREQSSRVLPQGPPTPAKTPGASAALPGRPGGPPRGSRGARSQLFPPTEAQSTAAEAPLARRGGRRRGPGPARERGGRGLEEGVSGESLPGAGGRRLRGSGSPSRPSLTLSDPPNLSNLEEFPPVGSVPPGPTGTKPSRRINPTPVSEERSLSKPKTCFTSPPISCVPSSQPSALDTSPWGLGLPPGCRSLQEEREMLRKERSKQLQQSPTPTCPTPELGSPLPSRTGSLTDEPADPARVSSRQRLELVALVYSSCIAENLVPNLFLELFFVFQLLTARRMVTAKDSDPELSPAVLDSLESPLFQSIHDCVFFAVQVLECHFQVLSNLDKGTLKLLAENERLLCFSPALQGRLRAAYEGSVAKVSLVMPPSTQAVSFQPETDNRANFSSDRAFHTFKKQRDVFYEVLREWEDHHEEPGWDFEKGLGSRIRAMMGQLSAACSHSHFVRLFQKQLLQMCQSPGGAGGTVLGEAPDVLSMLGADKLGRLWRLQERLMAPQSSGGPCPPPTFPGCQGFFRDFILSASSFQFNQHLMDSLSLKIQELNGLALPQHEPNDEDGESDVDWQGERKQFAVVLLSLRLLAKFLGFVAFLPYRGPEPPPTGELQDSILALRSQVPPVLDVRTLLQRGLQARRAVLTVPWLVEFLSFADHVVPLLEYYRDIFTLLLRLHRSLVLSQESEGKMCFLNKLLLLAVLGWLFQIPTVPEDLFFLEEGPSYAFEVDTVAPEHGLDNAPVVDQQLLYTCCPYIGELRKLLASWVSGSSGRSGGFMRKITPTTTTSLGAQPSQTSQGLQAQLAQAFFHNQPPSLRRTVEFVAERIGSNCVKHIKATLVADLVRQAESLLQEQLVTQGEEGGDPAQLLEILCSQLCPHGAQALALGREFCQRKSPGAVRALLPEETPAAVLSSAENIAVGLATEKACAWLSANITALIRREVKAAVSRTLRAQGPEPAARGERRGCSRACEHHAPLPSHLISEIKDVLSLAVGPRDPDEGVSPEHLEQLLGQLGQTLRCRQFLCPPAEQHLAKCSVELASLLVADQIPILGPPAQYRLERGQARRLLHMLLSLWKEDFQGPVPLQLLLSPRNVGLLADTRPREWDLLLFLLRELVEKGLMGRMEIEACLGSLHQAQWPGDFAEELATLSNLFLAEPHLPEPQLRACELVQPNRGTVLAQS

T2: full-length CODANIN-1 Mut4 (BD-Cmut_R825A/K826A) (human, UniProt Q8IWY9 1-1227, R825A | K826A)
T2 sequence: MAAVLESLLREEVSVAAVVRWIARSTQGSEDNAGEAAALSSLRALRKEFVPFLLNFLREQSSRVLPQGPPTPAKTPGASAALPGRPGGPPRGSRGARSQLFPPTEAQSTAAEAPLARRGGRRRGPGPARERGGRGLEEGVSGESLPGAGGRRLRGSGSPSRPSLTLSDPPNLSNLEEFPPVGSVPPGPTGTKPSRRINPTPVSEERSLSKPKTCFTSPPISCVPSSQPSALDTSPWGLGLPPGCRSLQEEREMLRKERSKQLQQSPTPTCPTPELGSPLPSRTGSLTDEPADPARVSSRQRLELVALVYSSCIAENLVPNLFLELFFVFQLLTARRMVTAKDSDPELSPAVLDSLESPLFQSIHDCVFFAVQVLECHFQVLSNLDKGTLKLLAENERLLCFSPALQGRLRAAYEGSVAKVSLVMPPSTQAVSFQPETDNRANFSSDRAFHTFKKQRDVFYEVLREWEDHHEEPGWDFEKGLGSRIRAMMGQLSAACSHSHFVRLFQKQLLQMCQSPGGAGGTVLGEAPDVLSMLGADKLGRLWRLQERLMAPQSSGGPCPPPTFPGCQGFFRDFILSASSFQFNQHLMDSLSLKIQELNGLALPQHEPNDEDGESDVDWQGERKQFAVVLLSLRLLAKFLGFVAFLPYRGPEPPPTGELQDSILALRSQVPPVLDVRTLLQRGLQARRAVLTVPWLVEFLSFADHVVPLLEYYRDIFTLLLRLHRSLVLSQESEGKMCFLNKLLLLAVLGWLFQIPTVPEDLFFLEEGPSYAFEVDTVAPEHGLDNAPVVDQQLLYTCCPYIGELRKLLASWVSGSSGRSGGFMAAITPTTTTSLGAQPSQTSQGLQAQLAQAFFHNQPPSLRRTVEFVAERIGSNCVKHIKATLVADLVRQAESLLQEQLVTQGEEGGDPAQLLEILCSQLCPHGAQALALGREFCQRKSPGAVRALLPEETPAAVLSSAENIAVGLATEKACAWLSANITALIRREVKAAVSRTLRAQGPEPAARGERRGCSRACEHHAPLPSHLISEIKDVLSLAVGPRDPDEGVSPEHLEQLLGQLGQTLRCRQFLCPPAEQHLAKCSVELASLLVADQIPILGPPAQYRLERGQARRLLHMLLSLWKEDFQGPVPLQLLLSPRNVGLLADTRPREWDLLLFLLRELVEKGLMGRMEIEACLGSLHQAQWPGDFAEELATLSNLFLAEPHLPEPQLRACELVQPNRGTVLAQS


Key:
[1] = biological target: T1, CODANIN-1 full-length (1–1227 a.a.), …; experiment: pull-down
[2] = biological target: T2, full-length CODANIN-1 Mut4 …; experiment: pull-down

binding result [1] | binding result [2] | Binder
binds | – | GST-ASF1A_([…]) D54A (domain or fragment) not shown
binds | binds | GST-ASF1A_([…]) V94R (domain or fragment) not shown

Continued, binder first:

Binder | binding result [1] | binding result [2]
GST-ASF1A_([…]) D88A (domain or fragment) not shown | binds | –
GST-ASF1A_([…]) E36A/D37A (domain or fragment) not shown | binds | –
